Reference: paper PMC6919601, “Identification of Plasmodium dipeptidyl aminopeptidase allosteric inhibitors by high throughput screening” (PLoS ONE, 2019)
The whole screen tested about 110,000 compounds, of which about 230 (0.21%) showed an effect of 50% or more. The list shows a part of the results.

biological target: DPAP1 (Plasmodium falciparum, UniProt Q8IIJ9); experiment: primary screen, percent inhibition; read by cleavage of a fluorogenic dipeptide substrate; higher = more effect of the substance; design: species or system P. falciparum D10 trophozoite lysates; single well
Sequence (Q8IIJ9 whole entry, looked up): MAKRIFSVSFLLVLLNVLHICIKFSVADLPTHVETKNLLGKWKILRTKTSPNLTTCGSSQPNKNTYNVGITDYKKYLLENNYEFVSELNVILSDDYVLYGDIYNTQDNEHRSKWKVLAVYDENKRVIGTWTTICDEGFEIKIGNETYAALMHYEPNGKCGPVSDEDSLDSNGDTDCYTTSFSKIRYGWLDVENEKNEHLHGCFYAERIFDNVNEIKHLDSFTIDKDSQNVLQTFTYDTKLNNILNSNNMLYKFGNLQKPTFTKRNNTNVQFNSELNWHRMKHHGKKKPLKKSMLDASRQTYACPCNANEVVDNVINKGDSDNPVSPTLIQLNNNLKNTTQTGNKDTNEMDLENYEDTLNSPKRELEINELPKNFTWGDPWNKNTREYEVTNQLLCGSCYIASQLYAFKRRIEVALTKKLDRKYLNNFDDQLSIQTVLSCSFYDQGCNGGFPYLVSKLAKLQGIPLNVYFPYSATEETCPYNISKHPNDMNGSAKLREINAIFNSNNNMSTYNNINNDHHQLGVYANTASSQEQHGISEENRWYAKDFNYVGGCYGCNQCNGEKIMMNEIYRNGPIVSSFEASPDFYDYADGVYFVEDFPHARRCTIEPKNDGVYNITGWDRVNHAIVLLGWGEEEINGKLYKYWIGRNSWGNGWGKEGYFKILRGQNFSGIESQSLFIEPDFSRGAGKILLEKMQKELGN
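Further: 30 min substrate incubation versus DMSO and 10 µM JCP410 controls.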

SMILES	% Inhibition @ 10 uM
CCN(CC)CCN(C(=O)c1ccc(C(C)=O)cc1)c1nc2ccc(C)cc2s1	-1.07%
C=CCn1c(C)c(C=C2C(=O)NC(=O)NC2=O)c2ccccc21	3.66%
CCCOc1ccc(CNC(=O)CCCn2ncn3c(cc4occc43)c2=O)cc1	-7.54%
O=C(Nc1cccc(NC(=O)c2ccccc2F)c1)c1ccccc1F	2.08%
COc1ccc2nc(N3CCC(O)(c4ccc(Br)cc4)CC3)cc(C)c2c1	15.8%
COc1cc(NC(=O)c2ccccc2-c2ccccc2)cc(OC)c1OC	-0.545%
Cc1noc(C)c1Cc1c(C)noc1C	1.24%
COc1cccc(OCCCCc2c(C)n[nH]c2C)c1	-0.833%
CC(C)c1ccc(S(N)(=O)=O)cc1	-3.48%
CCOC(=O)c1c(-c2ccc(C)cc2)csc1NC(=O)c1nc(S(=O)(=O)CC)ncc1Cl	-4.87%
CCO/C(O)=C1\C(CC)=NC2=C(C(=O)CC(C)(C)C2)C1c1ccc([N+](=O)[O-])cc1 (stereo not drawn)	0.716%
Cc1ccc(-c2[nH]c(-c3ccc(F)cc3)nc2SCC(=O)Nc2nccs2)cc1	-5.27%
CNS(=O)(=O)c1cn(CC(=O)N(C)C2CCCCC2)cc1S(=O)(=O)NC	-2.87%
CCn1c2ccccc2n2c(S(=O)(=O)Cc3ccccc3)nnc12	-0.666%
Oc1ccc(O)c(CN2CCCCCC2)c1	5.68%
CN(C)CCOC(=O)c1c[nH]c2ccccc12	4.18%
CCOc1ccc(C2=CC(c3ccccc3OC(F)F)n3nnnc3N2)cc1Cl (stereo not drawn)	3.32%
CN1CCN(CCCNC(=O)CSCc2cnn(-c3ccccc3)c2-n2cccc2)CC1	5.23%
CCOC(=O)c1cc(-c2ccc(F)cc2)n(CC(=O)Nc2ncccc2C)c1C	1.47%
CC(CCc1ccccc1)NC(=O)C1C2C=CC3(CN(Cc4cccs4)C(=O)C13)O2 (stereo not drawn)	1.07%
CCOCCCNC(=O)C1CCCN(S(=O)(=O)N(C)C2CCCCC2)C1 (stereo not drawn)	-1.09%
CCC(CC(NC(=O)OCc1ccccc1)C(=O)NCC#N)c1ccccc1 (stereo not drawn)	-3.48%
CCCCCOc1ccc(C2C(C#N)=C(N)Oc3[nH]nc(C)c32)cc1OC (stereo not drawn)	-1.16%
CC(=O)c1cccc(NS(=O)(=O)c2ccccc2F)c1	-4.39%
N#CC1=C(N)OC2=C(C(=O)CCC2)C1c1ccccc1Cl (stereo not drawn)	-0.0372%
c1ccc(-c2ccc(CN3CCC(N4CCCCC4)CC3)cc2)cc1	-1.75%
COc1nc(N(CC(N)=O)S(=O)(=O)c2ccccc2)nc(C)c1Cl	-7.33%
